The list shows a part of the results.

In one assay the test system is HSkMC. As to the kind of experiment: cytotoxicity call (relative viability < 0.9). The conditions noted are these: 10 µM.
The subject of the next assay is HepG2. As to the kind of experiment: cytotoxicity call (relative viability < 0.9). Conditions: 10 µM.
The subject of the next assay is S. aureus RN4220. As to the kind of experiment: growth inhibition call (relative growth <= 0.2). Conditions: 50 µM.

With `COc1ccc(S(=O)(=O)Nc2cccc3c2O[C@@H](CN(C)Cc2ccncc2)[C@@H](C)CN([C@H](C)CO)C3=O)cc1`, the cytotoxicity call in the assay on HSkMC and in the assay on HepG2 was “inactive” in each case. Also, in the assay with S. aureus RN4220, the growth inhibition call is “inactive”.
Turning to `O=C(C=CC=Cc1ccc2c(c1)OCO2)N1CCCCC1`, the cytotoxicity call in the assay on HSkMC and in the assay on HepG2 was “inactive” in each case. Also, the growth inhibition call with S. aureus RN4220 is “inactive”.
Turning to `C[C@@H]1CN([C@H](C)CO)C(=O)c2cc(NC(=O)Nc3ccc(F)cc3)ccc2O[C@@H](C)CCCCO[C@@H]1CN(C)Cc1ccccc1`, the cytotoxicity call in the assay on HSkMC and in the assay on HepG2 was “inactive” each time. Besides, in the assay with S. aureus RN4220, the growth inhibition call was “inactive”.
On to `Cc1ccc(S(=O)(=O)N(C)C[C@H]2Oc3cc(C#Cc4ccccc4)ccc3S(=O)(=O)N([C@H](C)CO)C[C@H]2C)cc1`, for which the cytotoxicity call in the assay with HSkMC and in the assay with HepG2 was “inactive” in each case. Further, the growth inhibition call with S. aureus RN4220 was “inactive”.
As for `C[C@@H]1CN([C@@H](C)CO)C(=O)Cc2cc(NC(=O)CCCCCC(=O)Nc3ccccc3N)ccc2O[C@@H]1CN(C)CC1CCCCC1`, the cytotoxicity call in the assay with HSkMC is “inactive”. Moreover, the cytotoxicity call in the assay on HepG2 was “active”. For the same compound, the growth inhibition call in the assay on S. aureus RN4220 was “inactive”.
As for `COc1ccc([C@@H]([C@H](Cc2ccccc2)OC(C)=O)N2C[C@H](CC(=O)N(C)C)[C@@H]3C(=NO[C@H]3c3ccccc3)[C@@H]2Cc2ccccc2)cc1`, the cytotoxicity call in the assay on HSkMC and in the assay on HepG2 was “inactive” throughout. In addition, in the assay on S. aureus RN4220, the growth inhibition call is “inactive”.
As to `COc1ccc(NC(=O)N[C@H]2CC[C@H](CCNC(=O)CN3CCOCC3)O[C@H]2CO)cc1`, the cytotoxicity call in the assay with HSkMC and in the assay with HepG2 was “inactive” each time. Besides, the growth inhibition call with S. aureus RN4220 is “inactive”.
Regarding `CCS(=O)(=O)N1C[C@]2(C1)CN([C@H](CO)c1[nH]c3cc(ccc3c12)OC)S(=O)(=O)c1cccc(c1)OC`, the cytotoxicity call in the assay with HSkMC and with HepG2 was “inactive” in each case. Besides, the growth inhibition call with S. aureus RN4220 was “inactive”.
Regarding `CC(C)NC(=O)N(C)C[C@@H]1Oc2ccc(NC(=O)Cc3ccccc3)cc2C(=O)N([C@@H](C)CO)C[C@@H]1C`, the cytotoxicity call with HSkMC and in the assay with HepG2 was “inactive” each time. In addition, the growth inhibition call in the assay with S. aureus RN4220 is “inactive”.
For the compound `CC(=O)Oc1cccc2c1C(=O)c1c(OC(C)=O)cc(C(=O)O)cc1C2=O`, the cytotoxicity call with HSkMC and in the assay on HepG2 was “inactive” throughout. The growth inhibition call in the assay with S. aureus RN4220 is “inactive”.
For `O=c1c(O[C@@H]2O[C@H](CO)[C@@H](O)[C@H](O)[C@@H]2O[C@H]2OC[C@](O)(CO)[C@H]2O)c(-c2ccc(O)c(O)c2)oc2cc(O)cc(O)c12`, the cytotoxicity call in the assay on HSkMC and with HepG2 was “inactive” throughout. The growth inhibition call in the assay with S. aureus RN4220 is “inactive”.
Take `COc1ccc(CN(C)C[C@H]2OCCCC[C@H](C)Oc3ccc(NC(=O)C4CCCCC4)cc3C(=O)N([C@H](C)CO)C[C@H]2C)cc1`: the cytotoxicity call in the assay on HSkMC and in the assay with HepG2 was “inactive” throughout. Moreover, the growth inhibition call in the assay on S. aureus RN4220 is “inactive”.
With `Cc1noc(C)c1NC(=O)Nc1ccc2c(c1)C(=O)N([C@@H](C)CO)C[C@H](C)[C@H](CN(C)S(=O)(=O)c1c(C)noc1C)O2`, the cytotoxicity call with HSkMC and in the assay with HepG2 was “inactive” in each case. In addition, the growth inhibition call in the assay with S. aureus RN4220 is “inactive”.
On to `CC(C)NC(=O)N(C)C[C@H]1Oc2ccc(NS(=O)(=O)c3ccc(F)cc3)cc2C(=O)N([C@H](C)CO)C[C@H]1C`, for which the cytotoxicity call with HSkMC and in the assay with HepG2 was “inactive” throughout. In addition, the growth inhibition call with S. aureus RN4220 was “inactive”.
For `C[C@@H]1CN([C@@H](C)CO)C(=O)c2cc(C#CCC3CCCC3)cnc2O[C@@H]1CN(C)C(=O)c1cnccn1`, the cytotoxicity call in the assay on HSkMC and with HepG2 was “inactive” in each case. Moreover, the growth inhibition call with S. aureus RN4220 is “inactive”.
Turning to `O=C([O-])C(O)C(O)C(O)C(O)C(O)CO.O=C([O-])C(O)C(O)C(O)C(O)C(O)CO.[Ca+2]` (stereo not given), the cytotoxicity call in the assay with HSkMC and in the assay on HepG2 was “inactive” each time. Also, the growth inhibition call with S. aureus RN4220 was “inactive”.
On to `Cc1noc(C)c1NC(=O)Nc1ccc2c(c1)CC(=O)N([C@@H](C)CO)C[C@H](C)[C@@H](CN(C)CC1CC1)O2`, for which the cytotoxicity call in the assay on HSkMC and with HepG2 was “inactive” throughout. In addition, the growth inhibition call with S. aureus RN4220 is “inactive”.
Consider `C[C@@H]1CN([C@H](C)CO)C(=O)c2cccc(NC(=O)Nc3ccc(C(F)(F)F)cc3)c2O[C@H]1CN(C)C(=O)Nc1ccccc1`, for which the cytotoxicity call in the assay on HSkMC and in the assay on HepG2 was “inactive” throughout. Besides, the growth inhibition call in the assay with S. aureus RN4220 is “inactive”.
`C[C@H]1CCCCO[C@H](CN(C)C(=O)Nc2ccc(F)cc2)[C@@H](C)CN([C@@H](C)CO)C(=O)c2cc(NC(=O)Nc3ccc4c(c3)OCO4)ccc2O1`: the cytotoxicity call in the assay on HSkMC (human skeletal muscle cells) and with HepG2 was “inactive” in each case. The growth inhibition call with S. aureus RN4220 is “inactive”.
In the case of `C[C@@H]1CN([C@@H](C)CO)C(=O)c2cc(NS(=O)(=O)c3cn(C)cn3)ccc2O[C@@H]1CN(C)CC1CC1`, the cytotoxicity call in the assay with HSkMC and with HepG2 was “inactive” in each case. Further, the growth inhibition call with S. aureus RN4220 is “inactive”.
As for `Cc1noc(C)c1NC(=O)N(C)C[C@H]1Oc2c(NS(=O)(=O)c3ccccc3)cccc2C(=O)N([C@H](C)CO)C[C@@H]1C`, the cytotoxicity call with HSkMC and with HepG2 was “inactive” each time. Further, the growth inhibition call with S. aureus RN4220 is “inactive”.
For `C[C@H](CO)N1C[C@H](C)[C@H](CN(C)CC2CCCCC2)Oc2ccc(NC(=O)Cn3cnnn3)cc2CC1=O`, the cytotoxicity call in the assay with HSkMC and with HepG2 was “inactive” throughout. Besides, in the assay on S. aureus RN4220, the growth inhibition call was “inactive”.
`C[C@H]1CN([C@@H](C)CO)C(=O)c2cc(NS(=O)(=O)c3cccs3)ccc2O[C@@H]1CN(C)S(=O)(=O)c1cccs1`: the cytotoxicity call with HSkMC and with HepG2 was “inactive” throughout. Further, the growth inhibition call in the assay on S. aureus RN4220 is “inactive”.
For the compound `CCS(=O)(=O)N1C[C@]2(CCN(CC2)C(=O)Nc2c(noc2C)C)c2c(n(c3cc(ccc23)OC)C)[C@H]1CO`, the cytotoxicity call with HSkMC and in the assay with HepG2 was “inactive” in each case. Moreover, the growth inhibition call in the assay with S. aureus RN4220 was “inactive”.
Turning to `NC(=O)CSCC(=O)Nc1ccccc1F`, the cytotoxicity call with HSkMC and in the assay on HepG2 was “inactive” each time. The growth inhibition call in the assay on S. aureus RN4220 was “inactive”.
